Assay results taken from PubChem BioAssay AID624296 (National Center for Advancing Translational Sciences (NCATS), 2012).
Among all 350,000 compounds or so, about 9,900 (2.8%) were called active. This list was built around the results that the source calls inconclusive (neither active nor inactive); the mix of calls is not that of the screen. The call rests on the fitted dose curve; in most records, active means well fitted activation curve with a large enough effect; inconclusive means small, poorly fitted or top-dose-only effect; inactive means no such curve, though single readings can be large or run the other way. Potencies of inconclusive entries are left out as doubtful fits.

Experiment: A quantitative high throughput screen for small molecules that induce DNA re-replication in MCF 10a normal breast cells. Further: nearly all actives have a fitted effect of over 50% in size.
Conditions: MCF 10A DNA re-replication, Hoechst nuclear intensity, 48 h; series mostly up to 46.1 µM
Potency means the concentration at half of the fitted maximal effect; tags describe the fitted curve by direction and shape.

SMILES	Potency
CCOC(=O)c1c(NC(=O)C2CCCO2)sc(C(=O)OC(C)(C)C)c1C (stereo not given)	inconclusive [activator, partial curve, poor fit]
Nc1ccc(C(=O)O)cc1	inconclusive [activator, full curve, poor fit]
CC(=O)Nc1c(NC(=O)CC#N)[nH]c2c(c1=O)c(=O)n(C)c(=O)n2C	inconclusive [activator, partial curve, poor fit]
O=C(Nc1nc2ccccc2s1)c1cc2c(s1)-c1ccccc1OC2	inconclusive [activator, full curve, poor fit]
Cc1ccc(C(=O)Nc2ccc(C)c(S(=O)(=O)Nc3ccccc3Cl)c2)s1	inconclusive [activator, partial curve]
CN(C)C(=O)CCc1ccc2c3c([nH]c2c1)[C@]1(CCc2ccccc2)[C@@H](C(=O)N2CCCCC2)C[C@H](CC(=O)NCCCn2ccnc2)C(=O)N1CC3	inconclusive [activator, full curve, poor fit]
CCOC(=O)c1c(C)[nH]c(C(=O)OCC(=O)NCc2ccc(F)cc2)c1C	inconclusive [activator, partial curve, poor fit]
COc1ccc(-c2cc3ccc(OCC(=O)NCC4CCC(C(=O)O)CC4)cc3oc2=O)cc1 (stereo not given)	inconclusive [activator, single point]
CN(C(=O)c1cccc(NC(=O)c2cccs2)c1)c1ccccc1	inconclusive [activator, partial curve, poor fit]
CC(C)[Si]1(C(C)C)OCC2OC(n3cnc4c(N)ncnc43)C(N)C2O[Si](C(C)C)(C(C)C)O1 (stereo not given)	active: 13 µM
CCN(CC)CCOC(=O)C1(c2ccc(OC)c(OC)c2)CCCC1	inactive
CCn1cc2nc(SCC(=O)Nc3ccc(OC)cc3OC)n(Cc3ccc(OC)cc3)c(=O)c2n1	active: 3.26 µM
NNc1nc(-c2ccccc2)c2cc(Cl)ccc2n1	active: 10.3 µM
O=c1c2c([nH]c3ccccc13)C(=C1CCCC1)CC2	inactive
CCOC(=O)N1CCN(c2cccc(C)c2C)CC1	inactive
Cc1nc(SCC(=O)N2CCCCCC2)c2c(=O)n(C)c(=O)n(CC(C)C)c2n1	inconclusive [activator, partial curve, poor fit]
Cc1cc(N/N=C\c2ccc(Br)cc2)nc(-n2nc(C)cc2C)n1	active: 18.4 µM
CCOC(=O)C1(CCOc2ccccc2)CCN(Cc2ccc(O)c(Cl)c2)CC1	inactive
COc1cccc(NC(=O)C(c2ccccc2)N2CCCCC2)c1 (stereo not given)	inconclusive [activator, single point]
Clc1ccc2c(c1)C1CC2CCN1Cc1ccccc1 (stereo not given)	inconclusive [activator, single point]
Cc1cc(C)cc(N(CC(=O)Nc2ccc(-c3nc4ccc(C)cc4s3)cc2)S(C)(=O)=O)c1	inconclusive [activator, single point]
C=CCNc1nnc(Cc2ccc(C(C)C)cc2)c(=O)[nH]1	inconclusive [activator, single point]

SMILES	Potency
O=C(Nc1ncc(Cc2cccc(C(F)(F)F)c2)s1)c1ccc(-c2cccc([N+](=O)[O-])c2)o1	inconclusive [activator, full curve, poor fit]
CC(C)CCNC(=O)c1cc(-c2cccs2)nc2ccccc12	inconclusive [activator, partial curve, poor fit]
CCc1ccc(NC(=O)CCc2nc3sc4c(c3c(=O)[nH]2)CCCC4)cc1	inconclusive [activator, single point]
Cc1cccc(C)c1NC(=S)NCCSc1ccc(Cl)cc1	inconclusive [activator, partial curve, poor fit]
Cc1ccc(C)c(/C=C/C(=O)c2ccccc(=O)c2O)c1	active: 18.4 µM
CCCCNc1c(-c2ccc(OC)c(SC(C)CC)c2)nc2ccc(C)cn12 (stereo not given)	inconclusive [activator, single point]
C=CCn1c(SCc2csc(-c3ccc(Cl)cc3)n2)nnc1-c1ccccc1OC	inconclusive [activator, single point]
CC(C)n1c(SCC(=O)Nc2nc3ccccc3s2)nc2c1c(=O)n(C)c(=O)n2C	inconclusive [activator, single point]
CC(=O)c1c(C)[nH]c(C(=O)OCC(=O)NCCc2ccc(F)cc2)c1C	inactive
Cc1ccc(NC(=O)c2ccc3c(SCC(=O)O)c4c(nc3c2)CCCC4)c(Br)c1	inconclusive [activator, single point]
O=C(NCCCn1ccnc1)c1ccc(Cl)s1	inactive
Cc1ccc2nc(SCCCCOc3ccccc3)[nH]c2c1	inconclusive [activator, single point]
COC(=O)c1cc(C(=O)N2CCN(c3cccc(C)c3C)CC2)cc([N+](=O)[O-])c1	inconclusive [activator, full curve, poor fit]
CN(Cc1ccccc1F)c1nc(-c2cccnc2)nc2ccccc12	inconclusive [activator, single point]
Cc1nn(Cc2c(F)c(F)c(F)c(F)c2F)c(C)c1NC(=O)c1ccc(COc2ccccc2Cl)cc1	inconclusive [activator, partial curve, poor fit]
CC1(C(=O)O)CCC(C(=O)Nc2ccc(OC(F)(F)Cl)cc2)C1(C)C (stereo not given)	inactive
Cc1[nH]n(-c2ccccc2)c(=O)c1-c1ccc(Cl)cc1	inconclusive [activator, single point]
Cc1ccc(-c2nnc(NC(=O)c3ccco3)o2)c(C)c1	inconclusive [activator, full curve, poor fit]
N#CNC(=Nc1cccc(F)c1)SCc1cccc(F)c1	inconclusive [activator, partial curve, poor fit]
C=C1SC(=Nc2ccccc2Cl)N(C(=O)c2sc3ccccc3c2Cl)C1(C)C	inconclusive [activator, partial curve, poor fit]
O=C(COC(=O)c1ccccc1O)NC12CC3CC(CC(C3)C1)C2	inactive
O=C(N/N=C/c1ccc2cccc(OCc3ccccc3)c2n1)c1ccc(Br)cc1	inconclusive [activator, full curve, poor fit]

SMILES	Potency
CC1Sc2ccc(S(=O)(=O)CCC(=O)N3CCN(c4cccc(Cl)c4)CC3)cc2NC1=O (stereo not given)	inconclusive [activator, partial curve, poor fit]
CC(=O)NC1CC2CCCC(C1)N2C(=O)Nc1ccccc1 (stereo not given)	inactive
C[C@H](CO)N1C[C@H](C)[C@@H](CN(C)S(=O)(=O)c2ccc(F)cc2)Oc2ccc(NC(=O)c3ccncc3)cc2C1=O	inconclusive [activator, single point]
CCCC[C@@H](CN[C@H](C)CNC)NCC1CCC(C(C)(C)C)CC1 (stereo not given in full)	inconclusive [activator, single point]
COC(=O)c1c(C)[nH]c(-c2csc(N)n2)c1C	inconclusive [activator, partial curve, poor fit]
CN(C)S(=O)(=O)c1cccc(NC(=O)c2cc(-c3cccs3)nc3ccccc23)c1	inconclusive [activator, partial curve, poor fit]
COc1cc(NS(=O)(=O)c2ccc(NC(=S)NC(=O)c3sc4cc(F)ccc4c3Cl)cc2)nc(OC)n1	inconclusive [activator, single point]
CCOc1ccccc1N1CCN(C(=S)NCc2ccccc2)CC1	inconclusive [activator, partial curve, poor fit]
CCN1CCCC1CNC(=O)CCc1nc(-c2ccc(C)cc2)no1 (stereo not given)	inactive
CCN1CCCC1CNC(=O)C(=O)NC (stereo not given)	inactive
N#Cc1ccc(C(=O)OCC(=O)N2CCN(C(=O)c3ccco3)CC2)cc1	inactive
NNC(=O)c1oc2nc(-c3ccccc3)cc(-c3ccco3)c2c1N	active: 20.6 µM
CN(C)c1ccc(/C=N/NC(=O)c2ccc(NC(=O)c3ccccc3)cc2)cc1	inconclusive [activator, single point]
Cc1ccc(C)c(OCC(O)CN2CCC(Cc3ccccc3)CC2)c1 (stereo not given)	inactive
CCCOc1ccc(OCCNC2CCCC2)cc1	inconclusive [activator, single point]
O=C(Nc1ccc(CN2CCCCC2)cc1)c1sc2ccccc2c1Cl	inconclusive [activator, partial curve, poor fit]
O=C(Cc1cccc2ccccc12)NCCc1ccccc1	inconclusive [activator, single point]
CC(=O)c1ccc(NC(=O)Nc2cccc3ccccc23)cc1	inconclusive [activator, single point]
Cn1c(SCc2ccc(C(C)(C)C)cc2)nnc1C1COc2ccccc2O1 (stereo not given)	active: 20.6 µM
CN(C)CCCNc1ncnc2c1cnn2Cc1ccccc1Cl	inconclusive [activator, single point]
Cc1ccccc1NC(=O)C(c1ccccc1)C1CCCC1 (stereo not given)	inconclusive [activator, partial curve, poor fit]
